Experimental findings from publication PMC4336329 (PLoS ONE, 2015) are described below.

SMILES strings stand for the structures. Screen size: about 310,000 compounds; about 14,000 (4.5%) showed an effect of 50% or more. Effects have a minus sign here. This is one part of the list.
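Also: peak tail current of the secondary pulse compared with the same well before compound.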

Chain of human ether-à-go-go-related gene (hERG) potassium channel (Q12809 whole entry, looked up): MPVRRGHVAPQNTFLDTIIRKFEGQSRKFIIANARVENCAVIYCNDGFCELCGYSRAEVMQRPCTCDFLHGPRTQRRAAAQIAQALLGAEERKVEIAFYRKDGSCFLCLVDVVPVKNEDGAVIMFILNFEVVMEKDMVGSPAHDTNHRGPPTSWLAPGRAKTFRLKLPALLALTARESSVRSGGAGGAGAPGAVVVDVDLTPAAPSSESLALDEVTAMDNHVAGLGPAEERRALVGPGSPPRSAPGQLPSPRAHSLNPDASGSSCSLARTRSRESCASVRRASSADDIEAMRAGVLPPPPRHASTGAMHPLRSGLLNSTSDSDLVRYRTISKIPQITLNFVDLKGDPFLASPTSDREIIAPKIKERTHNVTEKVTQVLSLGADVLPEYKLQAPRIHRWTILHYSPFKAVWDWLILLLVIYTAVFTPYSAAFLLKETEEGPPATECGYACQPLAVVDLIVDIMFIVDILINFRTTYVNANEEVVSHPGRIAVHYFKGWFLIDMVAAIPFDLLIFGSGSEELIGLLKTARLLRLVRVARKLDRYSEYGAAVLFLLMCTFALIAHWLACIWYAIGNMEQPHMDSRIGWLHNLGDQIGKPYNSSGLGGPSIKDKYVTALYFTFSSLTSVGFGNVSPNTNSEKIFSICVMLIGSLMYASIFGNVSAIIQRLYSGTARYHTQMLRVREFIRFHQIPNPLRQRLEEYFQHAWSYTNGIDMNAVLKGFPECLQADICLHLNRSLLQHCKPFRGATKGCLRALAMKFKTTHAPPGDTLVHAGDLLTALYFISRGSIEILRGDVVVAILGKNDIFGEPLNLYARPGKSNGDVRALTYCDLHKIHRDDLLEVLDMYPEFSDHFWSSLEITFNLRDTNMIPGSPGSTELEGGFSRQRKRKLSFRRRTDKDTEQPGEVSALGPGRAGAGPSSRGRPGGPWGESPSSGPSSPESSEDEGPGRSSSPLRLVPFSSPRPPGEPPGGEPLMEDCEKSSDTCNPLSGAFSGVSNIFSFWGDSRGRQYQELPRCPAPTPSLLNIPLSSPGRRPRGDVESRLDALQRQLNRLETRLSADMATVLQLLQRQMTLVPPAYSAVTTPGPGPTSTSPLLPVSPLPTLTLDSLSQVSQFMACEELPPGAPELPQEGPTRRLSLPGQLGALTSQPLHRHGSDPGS

The assay concerns the target human ether-à-go-go-related gene (hERG) potassium channel (human, UniProt Q12809). Briefly: primary screen, population patch clamp on CHO cells stably expressing hERG.
Consider `CC1CCN2c3nc4ccccn4c(=O)c3CC3(C(=O)N(C)C(=O)N(C)C3=O)C2C1` (stereo not drawn), for which the “hERG current change (%, negative = inhibition) at 10uM” value amounted to 8.47%.
Consider `O=C(CSCC(=O)N1CCOCC1)Nc1nc(-c2ccc3c(c2)OCO3)cs1`, for which the “hERG current change (%, negative = inhibition) at 10uM” value is recorded as -19.4%.
With `COc1ccc(CCC(=O)NCc2cccc(C(F)(F)F)c2)cc1`, the “hERG current change (%, negative = inhibition) at 10uM” value is on record as 0.407%.
Consider `O=C(NC1CCN(Cc2ccccc2)CC1)C1CCN(S(=O)(=O)c2ccc(Cl)cc2)CC1`, for which the “hERG current change (%, negative = inhibition) at 10uM” value is reported as -73.2%.
For the compound `O=c1c(-c2ccccc2)c(-c2ccccc2)oc2cc(O)cc(O)c12`, the “hERG current change (%, negative = inhibition) at 10uM” value amounted to 2.56%.
The figure for `Cc1ccc(-c2ccnc3c(Cl)c(C)nn23)cc1` is 16.7%; for `CC(C)CC(=O)Nc1ccc(S(=O)(=O)NCc2ccco2)cc1` it is -7.54%.
Turning to `COc1cc(C(=O)NNC(=O)c2n[nH]c3ccccc23)cc(OC)c1OC`, the “hERG current change (%, negative = inhibition) at 10uM” value is given as -12.6%.
Regarding `Cc1ccc(-n2ncc3c2CCCC3NC(=O)c2cnccn2)cc1C` (stereo not drawn), the “hERG current change (%, negative = inhibition) at 10uM” value is 4.61%.
Next, `Cc1c(Cl)cccc1NC(=O)CSc1nncn1-c1cccnc1`: 20.2%.
For `CCC(=O)NC(NC(=S)Nc1cccc2cccnc12)C(Cl)(Cl)Cl` (stereo not drawn), the “hERG current change (%, negative = inhibition) at 10uM” value is -5.91%.
The figure for `O=C(Nc1nc(-c2ccco2)c(-c2ccco2)s1)c1c(F)cccc1Cl` is -8.52%.
Turning to `CC(=O)Nc1ccc(S(=O)(=O)N2CCN(Cc3ccccc3[N+](=O)[O-])CC2)cc1`, the “hERG current change (%, negative = inhibition) at 10uM” value was determined as 14.8%.
Turning to `O=S(=O)(NCc1cccnc1)c1ccc(Cl)c(Cl)c1`, the “hERG current change (%, negative = inhibition) at 10uM” value is on record as -10.9%.
For the compound `CN(Cc1ccccc1)C(=O)COC(=O)c1cncc(Br)c1`, the “hERG current change (%, negative = inhibition) at 10uM” value was -8.11%.
In the case of `Cc1ccc(NC(=O)CCCC(=O)O)c(Br)c1`, the “hERG current change (%, negative = inhibition) at 10uM” value came out at 12%.
In the case of `O=C(CSc1ccccc1)Nc1nc2ccccc2[nH]1`, the “hERG current change (%, negative = inhibition) at 10uM” value was -1.15%.
As for `COc1ccccc1NC(=O)c1ccc(S(=O)(=O)NCc2ccco2)cc1`, the “hERG current change (%, negative = inhibition) at 10uM” value is recorded as -2.21%.
`COCCNC(=O)c1onc(CSc2cccc(OC)c2)c1C(=O)O`: the “hERG current change (%, negative = inhibition) at 10uM” value is recorded as 4.46%.
Turning to `COc1ccc(CC(=O)OC(C)CN2CCOCC2)cc1` (stereo not drawn), the “hERG current change (%, negative = inhibition) at 10uM” value stood at 13.4%.
Turning to `Cc1cccc(COC(=O)Nc2ccc(NC(=O)c3ccccc3Cl)cc2)c1`, the “hERG current change (%, negative = inhibition) at 10uM” value turned out to be 18.6%.
For `CCN1C(=O)[C@H]2[C@@H](c3ccc(C)cc3)N3C(=O)N(c4ccc(C)cc4)C(=O)[C@@]3(C)[C@H]2C1=O`, the “hERG current change (%, negative = inhibition) at 10uM” value turned out to be 10.6%.
For the compound `Cc1nn(CCCC(=O)NCc2ccccc2)c(=O)c2nccn12`, the “hERG current change (%, negative = inhibition) at 10uM” value was -15.8%.
`CC(=O)N/C(=C\c1ccccc1)C(=O)Nc1ccc(O)cc1`: the “hERG current change (%, negative = inhibition) at 10uM” value turned out to be 6.5%.
On to `CCCCC(NC(=O)Cc1c(C)c2cc3c(C)c(C)oc3c(C)c2oc1=O)C(=O)O` (stereo not drawn), for which the “hERG current change (%, negative = inhibition) at 10uM” value is -13.3%.
For `CC(=O)c1ccc(-c2cc([C@H]3[C@H]4C=CC[C@@H](C)[C@@H]4C(=O)N3Cc3ccccc3)ccc2F)cc1`, the “hERG current change (%, negative = inhibition) at 10uM” value amounted to 12%.
Take `CC1CCCC(C)N1CCCNC(=O)CN1C(=O)COc2ccc(S(=O)(=O)N3CCOCC3)cc21` (stereo not drawn): the “hERG current change (%, negative = inhibition) at 10uM” value was -36.1%.
Turning to `CCCCN(C)C(=O)Cn1cnc2sc(C)c(S(=O)(=O)N3CCN(c4ccccc4OC)CC3)c2c1=O`, the “hERG current change (%, negative = inhibition) at 10uM” value is on record as 5.47%.
Regarding `CCc1ccccc1NC(=O)COc1ccc2c(=O)c(Oc3cc(C)ccc3C)coc2c1`, the “hERG current change (%, negative = inhibition) at 10uM” value is reported as 10.5%.
In the case of `c1csc(-c2nn3c(Cn4nnc5ccccc54)nnc3s2)c1`, the “hERG current change (%, negative = inhibition) at 10uM” value is reported as 16.6%.
Next, `Cc1noc(NS(=O)(=O)c2ccc(N/C=C\C(=O)c3ccc(F)cc3)cc2)c1C`: -30.4%; `COc1cccc(N(C(C)=O)C2=NCCCS2)c1`: 9.39%; `Cc1ccc(CNC(=O)Cc2ccc(-n3cccc3)cc2)cc1`: 26.4%.
Take `COC(=O)c1cc2occc2n1Cc1nc(-c2ccccc2Cl)oc1C`: the “hERG current change (%, negative = inhibition) at 10uM” value is on record as -8.85%.
Next, `N#CCSc1nnc(Cc2cccs2)n1C1CCCCC1`: -9.08%.
Consider `Br.CCCn1c(=N)n(CC(=O)c2ccc(OCC(=O)OC)cc2)c2ccccc21`, for which the “hERG current change (%, negative = inhibition) at 10uM” value was -52.7%.
`CCOc1ccc(NC(=O)CN(C)C(=O)CC2CC3CCC2C3)cc1OCC` (stereo not drawn): the “hERG current change (%, negative = inhibition) at 10uM” value is 1.29%.
The figure for `COc1ccccc1OCCNC(=O)CNC(=O)c1ccc(Cl)c(Cl)c1` is -8.73%; for `N#CCN1C(=O)C(=O)N(Cc2cccc(C(F)(F)F)c2)C1=O` it is 18.5%.
With `O=C(CCSc1nnc(-c2ccco2)o1)Nc1ccc(Cl)cc1`, the “hERG current change (%, negative = inhibition) at 10uM” value was determined as 5.02%.
For the compound `COC(=O)c1ccc(NC(=S)N2CCN(Cc3ccccc3Cl)CC2)cc1`, the “hERG current change (%, negative = inhibition) at 10uM” value came out at 3.79%.
The figure for `CC1CCc2c(C(=O)Nc3cccc(-c4nn[nH]n4)c3)csc2C1` (stereo not drawn) is 4.03%.
Regarding `O=C(CCCn1c(=S)[nH]c2ccccc2c1=O)NCc1ccco1`, the “hERG current change (%, negative = inhibition) at 10uM” value was -4.16%.
For `CC(C)(C)c1ccc(OCC(=O)N/N=C/c2ccsc2)cc1`, the “hERG current change (%, negative = inhibition) at 10uM” value was -2.47%.
Regarding `Cc1ccc2nsnc2c1S(=O)(=O)N1CCN(Cc2ccc3c(c2)OCO3)CC1`, the “hERG current change (%, negative = inhibition) at 10uM” value is -21.5%.
For `COc1ccc(-c2cc(C(=O)Nc3cc(S(=O)(=O)N4CCOCC4)ccc3N3CCOCC3)c3ccccc3n2)cc1`, the “hERG current change (%, negative = inhibition) at 10uM” value is reported as 0.501%.
Consider `Cl.Oc1ccc(CC2CC3CCN2CC3)cc1O` (stereo not drawn), for which the “hERG current change (%, negative = inhibition) at 10uM” value is listed as 12.7%.
The figure for `CCCCNC(=S)NNC(=O)C12CC3CC(CC(C3)C1)C2` is -11.5%; for `Cc1ccc(S(=O)(=O)NC(=O)N2CCCN(Cc3ccc(F)cc3)CC2)cc1` it is 3.66%; for `OC(Cc1cccnc1)(Cc1cccnc1)c1cc2ccccc2[nH]1` it is 5.78%.
Next, `CC(C(=O)NC1CCCCC1)N(Cc1ccccc1)C(=O)c1snc(C(N)=O)c1N` (stereo not drawn): -13.2%.
As for `NC1=NC[C@H](Cc2ccc(O)cc2)N1CCc1cccc(F)c1`, the “hERG current change (%, negative = inhibition) at 10uM” value worked out at 8.61%.
Next, `CCc1nc(SCC(=O)Nc2ccc(OC)cc2[N+](=O)[O-])n[nH]1`: -1.6%; `Cn1cccc1/C=C1\SC(=O)N(c2ccc(O)cc2)C1=O`: 0.777%; `Cc1ccc(Nc2c(-c3ccc(N4CCOCC4)cc3)nc3ncccn23)cc1`: 8.02%.
As for `Cc1cc(=O)oc2cc(NC(=O)C3COc4ccccc4O3)ccc12` (stereo not drawn), the “hERG current change (%, negative = inhibition) at 10uM” value is recorded as 6.62%.
Take `Cc1cc(NS(=O)(=O)c2c(C(=O)N3CCOCC3)c(C)n(C)c2C)ccc1Br`: the “hERG current change (%, negative = inhibition) at 10uM” value was 13.9%.
The figure for `COc1ccc(Cc2nc(-c3ccccn3)no2)cc1OC` is 2.92%; for `CCC(C)NC(=O)CCc1nnc2ccc(N3CCC(C)CC3)nn12` (stereo not drawn) it is 3.66%.
For `COc1ccc(C2(C(=O)NCc3ccco3)CCCC2)cc1OC`, the “hERG current change (%, negative = inhibition) at 10uM” value is listed as 8.16%.
Next, `O=C(CSCC(=O)N1CCN(c2ccccc2)CC1)Nc1nc(-c2ccc(Cl)s2)cs1`: -1.87%.
Consider `Clc1ccc(Cn2ncc3c(NCc4ccco4)ncnc32)c(Cl)c1`, for which the “hERG current change (%, negative = inhibition) at 10uM” value is listed as -12%.
Next, `COC(=O)/C(=N/Nc1ccc(C)cc1)N1CCCc2ccccc21`: -1.05%; `CC(C)C(=O)Nc1ccc(N2CCN(S(C)(=O)=O)CC2)cc1`: 14.5%.
The figure for `O=c1c2c(nc3c(-c4ccc(Cl)cc4)c[nH]n13)CCC2` is 22.5%; for `COCCNC(=O)CSc1nc(N)c(NC(=O)c2ccccc2F)c(=O)[nH]1` it is 8.51%; for `O=S(=O)(Nc1ccc2c(c1)OCO2)c1ccc(Br)s1` it is -18.1%.
On to `CC(=O)c1ccc(OCc2cc(C(=O)N3CCCCC3c3cccnc3)no2)cc1` (stereo not drawn), for which the “hERG current change (%, negative = inhibition) at 10uM” value is listed as -34.1%.
Next, `COC(=O)c1cc(S(=O)(=O)N2CCN(C(=O)c3ccco3)CC2)cn1C`: 11.5%.
Next, `COc1ccc(C)cc1-n1nnnc1SCc1cn2ccsc2n1`: -28.7%; `N#Cc1cc(C#N)c(SCC(=O)N2CC(=O)Nc3ccccc32)nc1N`: 11.7%; `O=C(COc1ccccc1)NCC1(N2CCCCC2)CCCCC1`: -30%.
With `CCCCCNc1nc(-c2ccccc2)nc(-n2ccnc2)n1`, the “hERG current change (%, negative = inhibition) at 10uM” value stood at 13.8%.
As to `Cc1cccc(N(C(=O)c2snc(C(N)=O)c2N)C(C(=O)NCC2CCCO2)c2c[nH]c3ccccc23)c1` (stereo not drawn), the “hERG current change (%, negative = inhibition) at 10uM” value is listed as 0.112%.
As to `Cc1nn(CC(O)CN2c3ccccc3Sc3ccccc32)c(C)c1Br` (stereo not drawn), the “hERG current change (%, negative = inhibition) at 10uM” value is listed as -2.47%.
Turning to `COc1ccc(CCNC(=O)CSc2ccc(-c3cccs3)nn2)cc1`, the “hERG current change (%, negative = inhibition) at 10uM” value is 2.65%.
Next, `Cc1ccc(C(=O)N2CCCC2)cc1S(=O)(=O)N1CCOCC1`: 1.43%; `Cc1ccc(C(=O)N(CC(=O)NC2CCCC2)c2ccccc2C)s1`: -1.99%; `CCCN(CCC)C(=O)CC(c1ccccc1)C1CCOC(C)(C)C1` (stereo not drawn): 8.4%.
With `CCOc1ccc(N2CC(C(=O)N3CCCC3)CC2=O)cc1` (stereo not drawn), the “hERG current change (%, negative = inhibition) at 10uM” value is on record as -4.65%.
Take `Cn1cc(CCC(=O)N2CCC3(CC2)OCCO3)c2ccccc21`: the “hERG current change (%, negative = inhibition) at 10uM” value is given as -10.2%.
Turning to `Cc1n[nH]c(=O)c2c(NC(=O)CSc3nc4ccccc4c(=O)n3CCCO)oc(C)c12`, the “hERG current change (%, negative = inhibition) at 10uM” value is recorded as -21.2%.
`Cc1noc(/C=C/NCc2cccnc2)c1S(=O)(=O)N(C)CC(=O)N1CCc2ccccc21`: the “hERG current change (%, negative = inhibition) at 10uM” value was found to be 3.44%.
As for `CC(OC(=O)c1snc(C(=O)NC2CCCCC2)c1N)C(=O)NC1CCCCC1` (stereo not drawn), the “hERG current change (%, negative = inhibition) at 10uM” value is -3.99%.
On to `COc1ccccc1CNc1ncc(-c2ccc(F)cc2)n1C.O=C(O)C(=O)O`, for which the “hERG current change (%, negative = inhibition) at 10uM” value is listed as -62%.
Take `CCOC(=O)CC1C(=O)NCCN1S(=O)(=O)c1ccc(Cl)c(Cl)c1` (stereo not drawn): the “hERG current change (%, negative = inhibition) at 10uM” value is -4.31%.
For the compound `O=C1NN(c2ccccc2)C(=O)/C1=C\c1ccccc1`, the “hERG current change (%, negative = inhibition) at 10uM” value is listed as 7.94%.
